How the values were obtained:
Assay in all cases: minimum inhibitory concentration
Vancomycin = compound: CN[C@H](CC(C)C)C(=O)N[C@H]1C(=O)N[C@@H](CC(N)=O)C(=O)N[C@H]2C(=O)N[C@H]3C(=O)N[C@H](C(=O)N[C@H](C(=O)O)c4cc(O)cc(O)c4-c4cc3ccc4O)[C@H](O)c3ccc(c(Cl)c3)Oc3cc2cc(c3O[C@@H]2O[C@H](CO)[C@@H](O)[C@H](O)[C@H]2O[C@H]2C[C@](C)(N)[C@H](O)[C@H](C)O2)Oc2ccc(cc2Cl)[C@H]1O [Vancomycin]
Experimental: (§1)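 Broth microdilution MIC per ISO 10932 on precoated VetMIC Lact-1 plates (tylosin, vancomycin and ampicillin plates prepared manually) against lactic acid bacteria and bifidobacteria isolates. Plates were read visually after 48 h anaerobic incubation (bifidobacteria 72 h; enterococci and staphylococci 24 h aerobic) at species-specific temperatures of 30 or 37 °C. Values prefixed with < or > are outside the tested dilution range.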

Kanamycin = compound: NC[C@H]1O[C@H](O[C@H]2[C@H](O)[C@@H](O[C@H]3O[C@H](CO)[C@@H](O)[C@H](N)[C@H]3O)[C@H](N)C[C@@H]2N)[C@H](O)[C@@H](O)[C@@H]1O [Kanamycin]
Experimental: as §1

Streptomycin = compound: CN[C@@H]1[C@H](O[C@H]2[C@H](O[C@H]3[C@H](O)[C@@H](O)[C@H](N=C(N)N)[C@@H](O)[C@@H]3N=C(N)N)O[C@@H](C)[C@]2(O)C=O)O[C@@H](CO)[C@H](O)[C@H]1O [Streptomycin]
Experimental: as §1

Erythromycin = compound: CC[C@H]1OC(=O)[C@H](C)[C@@H](O[C@H]2C[C@@](C)(OC)[C@@H](O)[C@H](C)O2)[C@H](C)[C@@H](O[C@@H]2O[C@H](C)C[C@H](N(C)C)[C@H]2O)[C@](C)(O)C[C@@H](C)C(=O)[C@H](C)[C@@H](O)[C@]1(C)O [Erythromycin]
Experimental: as §1

Chloramphenicol = compound: O=C(N[C@H](CO)[C@H](O)c1ccc([N+](=O)[O-])cc1)C(Cl)Cl [Chloramphenicol]
Experimental: as §1

Clindamycin = compound: CCC[C@@H]1C[C@@H](C(=O)N[C@@H]([C@H]2O[C@H](SC)[C@H](O)[C@@H](O)[C@H]2O)[C@H](C)Cl)N(C)C1 [Clindamycin]
Experimental: as §1

Ampicillin = compound: CC1(C)S[C@@H]2[C@H](NC(=O)[C@H](N)c3ccccc3)C(=O)N2[C@H]1C(=O)O [Ampicillin]
Experimental: as §1

Tetracycline = compound: CN(C)[C@@H]1C(O)=C(C(N)=O)C(=O)[C@@]2(O)C(O)=C3C(=O)c4c(O)cccc4[C@@](C)(O)[C@H]3C[C@@H]12 [Tetracycline]
Experimental: as §1

Gentamicin = compound: CNC(C)C1CCC(N)C(OC2C(N)CC(N)C(OC3OCC(C)(O)C(NC)C3O)C2O)O1 [Gentamicin]
Experimental: as §1

Neomycin = compound: NC[C@@H]1O[C@H](O[C@H]2[C@@H](O)[C@H](O[C@@H]3[C@@H](O)[C@H](N)C[C@H](N)[C@H]3O[C@H]3O[C@H](CN)[C@@H](O)[C@H](O)[C@H]3N)O[C@@H]2CO)[C@H](N)[C@@H](O)[C@@H]1O [Neomycin]
Experimental: as §1
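Note: isolates derived from commercial starter, protective, probiotic or feed-additive cultures, from fermented products, from human gut mucosa or feces, and from human milk or colostrum.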

Test System	minimum inhibitory concentration (Vancomycin) [µg/mL]	minimum inhibitory concentration (Kanamycin) [µg/mL]	minimum inhibitory concentration (Streptomycin) [µg/mL]	minimum inhibitory concentration (Erythromycin) [µg/mL]	minimum inhibitory concentration (Chloramphenicol) [µg/mL]	minimum inhibitory concentration (Clindamycin) [µg/mL]	minimum inhibitory concentration (Ampicillin) [µg/mL]	minimum inhibitory concentration (Tetracycline) [µg/mL]	minimum inhibitory concentration (Gentamicin) [µg/mL]	minimum inhibitory concentration (Neomycin) [µg/mL]
Lactobacillus gasseri IM656 (strain group: human intestinal mucosa or faeces)	1	64	16	0.06	4	2	0.5	4	2	16
Bifidobacterium adolescentis IM789 (strain group: human intestinal mucosa or faeces)	0.5	512	64	0.25	2	0.06	0.063	16	128	32
Lactobacillus delbrueckii IM1112 (strain group: non-starter strains)	1	32	4	0.06	1	0.06	0.5	1	2	8
Bifidobacterium adolescentis IM761 (strain group: human intestinal mucosa or faeces)	0.5	1020	128	0.12	2	0.06	0.25	1	256	128
Lactobacillus gasseri IM821 (strain group: human milk or colostrum)	1	64	2	0.12	4	4	1	2	2	16
Streptococcus thermophilus IM1440 (strain group: starter cultures)	0.5	32	16	0.25	4	0.06	0.25	1	4	8
Lactobacillus gasseri IM926 (strain group: human milk or colostrum)	1	64	4	0.25	4	8	0.5	2	2	128
Lactobacillus gasseri IM822 (strain group: human milk or colostrum)	1	64	8	0.06	4	4	0.5	1	2	8
Lactobacillus gasseri IM887 (strain group: human milk or colostrum)	1	64	4	0.12	2	4	1	2	2	16
Bifidobacterium adolescentis IM760 (strain group: human intestinal mucosa or faeces)	0.5	1020	256	0.12	2	0.12	0.063	1	256	128
Lacticaseibacillus rhamnosus IM827 (strain group: human milk or colostrum)	> 128	64	16	0.25	8	1	4	1	4	4
Lactobacillus gasseri IM856 (strain group: human milk or colostrum)	1	128	2	0.12	4	4	1	2	2	8
Limosilactobacillus fermentum IM815 (strain group: human milk or colostrum)	> 128	64	32	0.25	8	0.06	0.5	8	2	2
Limosilactobacillus fermentum IM687 (strain group: human intestinal mucosa or faeces)	> 128	128	64	1	8	0.25	1	32	4	4
Lactobacillus acidophilus IM1074 (strain group: non-starter strains)	2	64	4	0.12	4	1	0.5	0.5	4	4
Bifidobacterium adolescentis IM683 (strain group: human intestinal mucosa or faeces)	0.5	128	32	0.06	2	0.12	< 0.032	1	32	64
Lactococcus lactis IM1467 (strain group: starter cultures)	0.5	32	16	0.25	4	0.12	0.5	2	1	16

Test System	minimum inhibitory concentration (Vancomycin) [µg/mL]	minimum inhibitory concentration (Kanamycin) [µg/mL]	minimum inhibitory concentration (Streptomycin) [µg/mL]	minimum inhibitory concentration (Erythromycin) [µg/mL]	minimum inhibitory concentration (Chloramphenicol) [µg/mL]	minimum inhibitory concentration (Clindamycin) [µg/mL]	minimum inhibitory concentration (Ampicillin) [µg/mL]	minimum inhibitory concentration (Tetracycline) [µg/mL]	minimum inhibitory concentration (Gentamicin) [µg/mL]	minimum inhibitory concentration (Neomycin) [µg/mL]
Lactobacillus gasseri IM823 (strain group: human milk or colostrum)	1	64	8	0.12	4	8	0.5	2	2	16
Limosilactobacillus fermentum IM848 (strain group: human milk or colostrum)	> 128	64	32	0.25	8	0.06	1	4	4	4
Bifidobacterium adolescentis IM795 (strain group: human intestinal mucosa or faeces)	0.5	1020	> 256	0.25	2	0.25	0.125	1	256	> 256
Bifidobacterium longum IM753 (strain group: human intestinal mucosa or faeces)	0.5	512	128	0.12	2	0.12	0.125	16	64	64
Bifidobacterium animalis IM774 (strain group: human intestinal mucosa or faeces)	0.5	512	128	0.25	2	0.12	0.125	16	256	256
Lactobacillus acidophilus IM304 (strain group: probiotic strains)	0.5	32	4	0.25	4	1	1	0.25	4	8
Lactobacillus gasseri IM814 (strain group: human milk or colostrum)	1	16	1	0.03	4	4	0.5	2	1	16
Lactobacillus gasseri IM820 (strain group: human milk or colostrum)	1	128	4	0.25	4	4	1	2	4	16
Bifidobacterium animalis subsp. lactis IM1392 (strain group: probiotic strains)	0.5	512	64	0.06	1	0.06	0.5	8	64	128
Lactobacillus gasseri IM725 (strain group: human milk or colostrum)	2	64	16	0.12	4	0.12	0.5	1	2	16
Lactobacillus acidophilus IM1406 (strain group: starter cultures)	1	32	4	0.12	4	0.5	1	0.5	2	2
Lactobacillus gasseri IM825 (strain group: human milk or colostrum)	2	64	8	< 0.016	2	0.25	0.25	1	2	16
Streptococcus thermophilus IM1377 (strain group: starter cultures)	< 0.25	16	16	0.5	4	0.12	< 0.032	1	2	4
Bifidobacterium adolescentis IM782 (strain group: human intestinal mucosa or faeces)	0.5	512	256	0.12	2	0.06	0.125	2	128	128
Bifidobacterium adolescentis IM714 (strain group: human intestinal mucosa or faeces)	0.5	512	128	0.12	2	0.06	0.125	1	128	128
Lactobacillus gasseri IM890 (strain group: human milk or colostrum)	0.5	16	2	0.03	4	2	1	4	1	8

Source: the supplement of paper PMC9542798
